Experimental data from paper PMC4336329 (PLoS ONE, 2015).
About 2,200 (0.71%) of roughly 310,000 compounds showed an effect of 50% or more. The effect is printed as a negative number. The list shows a part of the results.

Biological target: human ether-à-go-go-related gene (hERG) potassium channel (human, UniProt Q12809)
Assay: primary screen, population patch clamp on CHO cells stably expressing hERG

Sequence of human ether-à-go-go-related gene (hERG) potassium channel (Q12809 whole entry, looked up): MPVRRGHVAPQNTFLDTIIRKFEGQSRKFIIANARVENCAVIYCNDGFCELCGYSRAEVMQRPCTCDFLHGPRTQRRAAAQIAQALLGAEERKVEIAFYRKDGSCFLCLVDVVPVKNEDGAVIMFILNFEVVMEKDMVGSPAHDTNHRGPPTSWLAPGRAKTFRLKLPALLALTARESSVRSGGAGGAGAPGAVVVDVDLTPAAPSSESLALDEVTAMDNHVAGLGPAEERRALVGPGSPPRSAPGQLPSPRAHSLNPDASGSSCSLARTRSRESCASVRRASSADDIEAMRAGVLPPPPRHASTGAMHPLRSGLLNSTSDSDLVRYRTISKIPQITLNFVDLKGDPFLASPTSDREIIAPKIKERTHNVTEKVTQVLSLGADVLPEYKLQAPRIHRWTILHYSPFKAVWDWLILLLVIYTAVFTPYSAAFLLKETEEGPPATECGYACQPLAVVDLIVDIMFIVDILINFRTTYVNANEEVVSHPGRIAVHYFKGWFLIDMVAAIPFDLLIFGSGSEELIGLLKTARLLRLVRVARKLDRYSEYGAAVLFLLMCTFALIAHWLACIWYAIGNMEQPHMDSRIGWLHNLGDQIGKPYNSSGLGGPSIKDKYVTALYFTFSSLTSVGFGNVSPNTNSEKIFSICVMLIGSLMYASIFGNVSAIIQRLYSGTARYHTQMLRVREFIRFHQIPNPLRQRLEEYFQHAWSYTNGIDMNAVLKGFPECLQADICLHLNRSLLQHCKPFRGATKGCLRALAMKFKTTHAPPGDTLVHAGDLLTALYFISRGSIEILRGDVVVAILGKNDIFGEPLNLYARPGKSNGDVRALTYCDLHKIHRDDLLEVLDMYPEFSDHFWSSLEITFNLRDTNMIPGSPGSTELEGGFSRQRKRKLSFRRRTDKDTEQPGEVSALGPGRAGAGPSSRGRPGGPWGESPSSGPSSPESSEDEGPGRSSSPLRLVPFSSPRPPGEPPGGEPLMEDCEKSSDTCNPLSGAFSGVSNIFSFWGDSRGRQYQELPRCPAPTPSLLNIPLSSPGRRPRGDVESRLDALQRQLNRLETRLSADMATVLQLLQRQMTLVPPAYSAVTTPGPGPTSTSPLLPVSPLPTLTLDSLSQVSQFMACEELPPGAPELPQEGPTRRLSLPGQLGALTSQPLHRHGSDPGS

SMILES	hERG current change (%, negative = inhibition) at 1uM [%]
CC(=O)N1CCN(S(=O)(=O)c2cccc(C(=O)Nc3ccc4c(c3)OCO4)c2)CC1	-1.51
CC(C)c1ccc(CNc2ncccn2)cc1.O=C(O)C(=O)O	11.8
O=C(c1ccc(Cl)c(S(=O)(=O)N2CCCCC2)c1)N1CCCC(C(F)(F)F)C1 (stereo not shown)	5.97
Cc1ccc(S(=O)(=O)N2CCOCC2)cc1NC(=O)COC(=O)CCOc1ccc(C(C)(C)C)cc1	0.113
CCOc1ccc(N(CC)C(=O)CCNC(=O)Cn2ccc3ccccc3c2=O)cc1	8.53
O=C(COC(=O)c1cc(S(=O)(=O)N2CCOCC2)ccc1Cl)NCc1ccco1	-1.95
Cc1cc(Br)c(NC(=O)CCNC(=O)OCc2ccccc2)cc1C	9.02
COc1ccc(CCNC(=O)Cn2ccc3c(OC)cccc3c2=O)cc1OC	-1.8
COc1ccc(-c2cc3c(=O)n(CC(=O)NCCCN4CCN(Cc5ccccc5)CC4)ncn3n2)cc1	-18.2
Cc1cc([N+](=O)[O-])nn1Cn1nc([N+](=O)[O-])cc1C	-2.28
COC(=O)c1cc(S(=O)(=O)NCc2ccc(Br)cc2)c[nH]1	10.4
CCOC(=O)N1CCC(N(CCN(C)C)C(=S)Nc2cccc(OC)c2)CC1	12.7
COc1ccc(C(=O)NCC(C)(C)CNC(=O)c2ccc(OC)cc2)cc1	1.4
CCn1nnnc1-c1ccc(OC)c(S(=O)(=O)Nc2ccc(OC)cc2)c1	4
Cc1cccc(N(C(=O)c2csnn2)C(C(=O)NC2CCCCC2)c2ccncc2)c1 (stereo not shown)	16.4
C/C(N)=C(/C#N)C(=O)CSc1nc2ccccc2c(=O)n1Cc1ccc(C)cc1	3.32
Cc1nc2c(C)cccn2c1/C(O)=C1\C(=O)C(=O)N(CCN(C)C)C1c1ccccc1 (stereo not shown)	11.9
CC(=O)Nc1sc(C)c(C)c1C(=O)OCC(=O)N(C)C1CCS(=O)(=O)C1 (stereo not shown)	-3.42
O=C(NCCc1nc2ccccc2[nH]1)/C(=C/c1ccco1)NC(=O)c1ccccc1Br	1.53
COc1cc(NC(=O)c2ccc(Br)cc2)c(OC)cc1NC(=O)c1ccccc1	18.2
CC(Sc1nc(-c2ccccc2)nc2c1COC(C)(C)C2)C(=O)N1CCOCC1 (stereo not shown)	-18.2
O=C(OCC(=O)N1CCN(C(=O)c2ccco2)CC1)c1sc2ccccc2c1Cl	9.18
O=C(NC1CCS(=O)(=O)C1)c1ccc2c(c1)OCO2 (stereo not shown)	5.35
Cc1c(C=O)c2ccccc2n1CC(=O)N1CCc2ccccc2C1	13.6
COCCn1c(-c2ccc(Cl)cc2)cnc1SCC(=O)NCCc1ccc(OC)c(OC)c1	-1.64
Cc1[nH]c2ccc(C(=O)N3CCN(c4ccccc4Cl)CC3)cc2c1C	13.2
Cc1ccc(CNC(=O)CN2C(=O)COc3ccc(C)cc32)cc1	6.04
COc1ccc(CNC(=O)COC(=O)Cc2ccsc2)cc1	3.17

SMILES	hERG current change (%, negative = inhibition) at 1uM [%]
Cc1ccc(C(C2=C(O)CC(C)(C)CC2=O)C2C(=O)CC(C)(C)CC2=O)o1 (stereo not shown)	16.3
COc1ccc2cc(C(=O)N3CCN(c4ccccc4OC)CC3)[nH]c2c1	17
Cc1nc2ccccn2c1C(=O)N=Nc1c(O)n(CCC(C)C)c2ccccc12	11.1
COC(=O)c1ccccc1NC(=O)c1cc(C2CC2)on1	5.84
O=C(O)COc1ccc(-c2nccc(-c3ccccn3)n2)cc1	15.2
Cc1ccc(C(=O)O/N=C(\N)c2ccccn2)c(C)c1	12
COCCCNc1oc(-c2ccccc2Cl)nc1C#N	9.35
O=C(Cn1cc(C(=O)c2ccco2)c2ccccc21)NCc1ccco1	-1.17
Cc1cc(C)nc(SCc2cc(=O)c(OC(=O)c3ccc(Cl)c([N+](=O)[O-])c3)co2)n1	10.7
COc1ccc(-c2cc(C(=O)Nc3c(C)n(C)n(-c4ccccc4)c3=O)no2)cc1OC	19.8
Cc1cccc(NC(=O)c2ccc(Cl)c(S(=O)(=O)N3CCc4ccccc43)c2)n1	1.9
Cc1cc(N(C)C)c(C#N)c(N2CCOCC2)n1	15.4
CCc1cccc(CC)c1NC(=O)c1cc(CN2C(=O)c3ccccc3C2=O)ccc1OC	3.6
O=S(=O)(c1ccc(Cl)s1)N1CCC(Cc2ccccc2)CC1	-1.56
CC(=O)N1c2ccc(S(=O)(=O)N3CCCC3C(=O)NCc3ccccc3Cl)cc2CC1C (stereo not shown)	-14.7
COc1ccc(CCN(C)C(=O)CSc2nnnn2C)cc1OC	17.4
c1ccc2c(c1)nc(Nc1ccc(N3CCCCC3)cc1)c1nncn12	4.49
O=C(O)CC1NC(=S)N(c2ccccc2)C1=O (stereo not shown)	7.93
Cc1c(C)[n+](=O)c2c(n1[O-])CCCCC2	4.34
O=C(Nc1ccccn1)NC(C(F)(F)F)C(F)(F)F	8.29
O=C(NCCCN1CCCC1=O)c1ccc(Cl)c(Cl)c1	10
COc1ccccc1C/C(N)=N/OC(=O)c1ccc(C)c([N+](=O)[O-])c1	-0.487
Nc1ccc(-c2ncc(-c3ccccc3)o2)cc1	14.1
COc1ccc(N2CC(C(=O)N[C@@H](C)C(=O)NC3CCCC3)CC2=O)cc1 (stereo partly shown)	6.07
CCN1c2nc3ccccn3c(=O)c2CC2(C(=O)N(C)C(=O)N(C)C2=O)C1C (stereo not shown)	10.1
CCOc1cccc(Oc2ccc(C(F)(F)F)cn2)c1	-7.1
CC(C)c1ccc(OCC(=O)N2CCCN(C)CC2)cc1	6.08
